Among all 1,900 compounds or so, about 40 (2%) showed an effect of 50% or more. The list shows a part of the results.
biological target: human SGLT1 (hSGLT1) (human, UniProt P13866); assay: primary screen, percent of control activity; higher = less effect of the substance; parameters: single well; settings: 50 µM
Method: Two days before the assay, CHO‐wild type and CHO‐hSGLT1 cells were seeded in maintenance medium at 25 000 cells/well in clear‐bottom black 96‐well cell culture plates. Before the assay, cells were washed 3 times with 150 μL/well D‐glucose free DMEM with 0.3% (w/v) BSA. Library compounds at 50 μmol/L (singlicate) prepared in D‐glucose free DMEM with 160 μmol/L 1‐NBD‐glucose and 0.3% (w/v) BSA and negative controls (triplicate) were added at 100 μL/well and placed in a humidified incubator at 37°C with 5% CO2 for 90 minutes. Next, cells were washed 3 times with DMEM with 0.3% (w/v) BSA (150 μL/well). Care was taken to remove all medium after the last wash. Finally, 1‐NBD‐glucose was extracted from the cells by adding 10 μL/well isopropanol and orbital shaking for 5 minutes at 600 rpm, followed by incubation in the dark for 30 minutes. Fluorescence was measured on a Tecan Infinite M200 Microplate Reader (Tecan, Männedorf, Switzerland) with excitation at 445 nm and emission at 525 nm. The amount of 1‐NBD‐glucose taken up by the CHO‐wild type or CHO‐hSGLT1 cells in the presence or absence of test compounds was interpolated from 1‐NBD‐glucose calibration standards. The background uptake by CHO‐wild type was subtracted from the uptake by CHO‐hSGLT1. Background corrected uptake with test compound was expressed as a percentage of corrected uptake without test compound.

human SGLT1 (hSGLT1), sequence (P13866 whole entry, looked up): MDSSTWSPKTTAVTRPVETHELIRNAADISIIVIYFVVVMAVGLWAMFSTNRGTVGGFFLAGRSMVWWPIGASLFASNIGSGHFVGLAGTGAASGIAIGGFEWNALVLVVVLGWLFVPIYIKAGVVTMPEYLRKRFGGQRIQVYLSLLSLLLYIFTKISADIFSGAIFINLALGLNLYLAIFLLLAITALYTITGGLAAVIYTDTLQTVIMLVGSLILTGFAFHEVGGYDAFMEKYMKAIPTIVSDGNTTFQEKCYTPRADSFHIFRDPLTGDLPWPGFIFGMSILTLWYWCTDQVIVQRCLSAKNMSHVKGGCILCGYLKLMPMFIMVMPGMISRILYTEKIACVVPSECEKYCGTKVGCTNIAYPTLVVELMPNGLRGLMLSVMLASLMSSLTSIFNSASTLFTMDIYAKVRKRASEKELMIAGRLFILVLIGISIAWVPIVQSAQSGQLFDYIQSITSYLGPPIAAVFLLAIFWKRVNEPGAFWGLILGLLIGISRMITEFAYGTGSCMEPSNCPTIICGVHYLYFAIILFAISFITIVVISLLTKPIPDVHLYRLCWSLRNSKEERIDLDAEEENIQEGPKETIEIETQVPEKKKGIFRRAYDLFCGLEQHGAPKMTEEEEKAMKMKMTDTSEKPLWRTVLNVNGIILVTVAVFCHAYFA

Going from CSC(=N)NCCC[C@@H](N)C(=O)O to CCNC(=O)CC[C@H](N)C(=O)O, the “NORMALIZED SGLT1 ACTIVITY (%)” value falls from 102% to 97%.

First: C[C@@]12C(=O)OC(=O)[C@]1(C)[C@H]1CC[C@@H]2O1
Second: Cn1c(=O)c2nc(C3CCCC3)[nH]c2n(C)c1=O
The “NORMALIZED SGLT1 ACTIVITY (%)” value of the first is lower: 112% for the first, 240% for the second.

First: C#C[C@]1(O)CCC2C3CCC4=C(CCC(=O)C4)C3CC[C@@]21C (stereo partly shown)
Second: C[C@]12CC[C@@H]3c4ccc(O)cc4CC[C@H]3[C@@H]1CC[C@@H]2OC(=O)CCC1CCCC1
The “NORMALIZED SGLT1 ACTIVITY (%)” value of the first is higher: 203% for the first, 122% for the second.

Compared with CO[C@@]1(NC(=O)CSCC#N)C(=O)N2C(C(=O)O)=C(CSc3nnnn3C)CS[C@@H]21, C=CC1=C(C(=O)O)N2C(=O)[C@@H](NC(=O)/C(=N\O)c3csc(N)n3)[C@H]2SC1 is higher in “NORMALIZED SGLT1 ACTIVITY (%)” value: 89% for the first, 98% for the second.

Going from C[C@@H]1[C@H](O)[C@@H](C)/C=C/C=C/C=C/C=C/C=C/C=C/C=C/[C@H](O[C@@H]2O[C@H](C)[C@@H](O)[C@H](N)[C@@H]2O)C[C@@H]2O[C@](O)(C[C@@H](O)C[C@@H](O)[C@H](O)CC[C@@H](O)C[C@@H](O)CC(=O)O[C@H]1C)C[C@H](O)[C@H]2C(=O)O to C[C@@H]1OC(O[C@H]2[C@H](O)[C@@H](O)[C@H](OC[C@H]3O[C@@H](OC(=O)[C@]45CCC(C)(C)CC4C4=CCC6[C@@]7(C)CC[C@H](OC8OC[C@H](O)[C@H](O)[C@H]8OC8O[C@@H](C)[C@H](O)[C@@H](O)[C@H]8O)[C@@](C)(CO)C7CC[C@@]6(C)[C@]4(C)CC5)[C@H](O)[C@@H](O)[C@@H]3O)O[C@@H]2CO)[C@H](O)[C@H](O)[C@H]1O (stereo partly shown), the “NORMALIZED SGLT1 ACTIVITY (%)” value rises from 93% to 112%.

First: O=S1OCC2C(CO1)C1(Cl)C(Cl)=C(Cl)C2(Cl)C1(Cl)Cl (stereo not shown)
Second: O=C1CCO1
The “NORMALIZED SGLT1 ACTIVITY (%)” value of the first is lower: 101% for the first, 135% for the second.

Compared with CCOC(=O)C(C)(C)Oc1ccc(Cl)cc1, CC(C)(Oc1ccc(Cl)cc1)C(=O)O is higher in “NORMALIZED SGLT1 ACTIVITY (%)” value: 84% for the first, 144% for the second.

First: CCC(Cc1c(I)cc(I)c(N)c1I)C(=O)O (stereo not shown)
Second: CCOC(=O)C1(O)Oc2cc(OC)cc(OC)c2C(=O)C1c1ccccc1 (stereo not shown)
The “NORMALIZED SGLT1 ACTIVITY (%)” value of the first is higher: 209% for the first, 188% for the second.

Going from O=C(O)/C=C(\CC(=O)O)C(=O)O to CC(=O)N[C@@H](CC(=O)O)C(=O)O, the “NORMALIZED SGLT1 ACTIVITY (%)” value rises from 98% to 100%.

Compared with O=C(CCCN1CCN(c2ccccn2)CC1)c1ccc(F)cc1, CCCCC1C(=O)N(c2ccccc2)N(c2ccc(O)cc2)C1=O (stereo not shown) is lower in “NORMALIZED SGLT1 ACTIVITY (%)” value: 111% for the first, 109% for the second.

Cc1ccc(C(=O)c2ccc(CC(=O)[O-])n2C)cc1.[Na+] and CC1(C)S[C@@H]2[C@H](NC(=O)Cc3ccccc3)C(=O)N2[C@H]1C(=O)[O-].[K+] are the same in “NORMALIZED SGLT1 ACTIVITY (%)” value: 115% for the first, 115% for the second.

First: CC(=O)O[C@@](C)(CCC=C(C)C)C1CC=C(C)CC1 (stereo partly shown)
Second: CC(=O)O[C@H]1CCC2(C)C3=C(CCC2C1(C)C)[C@]1(C)CCC(C(C)CCC=C(C)C)[C@@]1(C)CC3 (stereo partly shown)
The “NORMALIZED SGLT1 ACTIVITY (%)” value of the first is lower: 112% for the first, 119% for the second.

Compared with CN1CC(=O)NC1=N, CC(C)Cn1c(=O)n(C)c(=O)c2[nH]cnc21 is higher in “NORMALIZED SGLT1 ACTIVITY (%)” value: 105% for the first, 143% for the second.

First: CC(C)=CCc1c2c(c3occ(-c4ccc(O)cc4)c(=O)c3c1O)C=CC(C)(C)O2
Second: O=C(O)c1cc(-c2ccc(F)cc2F)ccc1O
The “NORMALIZED SGLT1 ACTIVITY (%)” value of the first is lower: 125% for the first, 328% for the second.

First: O=C(C1CCCCC1)N1CC(=O)N2CCc3ccccc3C2C1 (stereo not shown)
Second: C[C@]12CCC(=O)C=C1CCc1ccc(O)cc12
The “NORMALIZED SGLT1 ACTIVITY (%)” value of the first is higher: 154% for the first, 127% for the second.

Going from CCC(CCC(C)[C@H]1CCC2C3CC=C4C[C@@H](OC(C)=O)CC[C@]4(C)C3CC[C@@]21C)C(C)C (stereo partly shown) to COC1C(O)C(O[C@H]2CC[C@]3(C=O)C4C(CC[C@]3(O)C2)[C@@]2(O)CC[C@H](C3=CC(=O)OC3)[C@@]2(C)C[C@H]4OC(C)=O)OC(C)C1OC(C)=O (stereo partly shown), the “NORMALIZED SGLT1 ACTIVITY (%)” value falls from 110% to 99%.

Going from Cc1cc(=O)oc2cc(O)c(O)cc12 to COc1cc(OC)c2c(=O)cc(-c3ccccc3)oc2c1, the “NORMALIZED SGLT1 ACTIVITY (%)” value falls from 146% to 118%.

First: CNC(=O)O/N=C(/C)SC
Second: CC(=O)NO
The “NORMALIZED SGLT1 ACTIVITY (%)” value of the first is lower: 76% for the first, 99% for the second.

First: COCCOC(=O)C1=C(C)NC(C)=C(C(=O)OC(C)C)C1c1cccc([N+](=O)[O-])c1 (stereo not shown)
Second: COc1ccc([C@H]2Oc3c(I)c(OC)cc(OC)c3C[C@@H]2O)cc1OC
The “NORMALIZED SGLT1 ACTIVITY (%)” value of the first is higher: 151% for the first, 116% for the second.

First: c1ccc2c(Cc3c[nH]c4ccccc34)c[nH]c2c1
Second: O=C(N[C@@H](Cc1ccccc1)C(=O)CCl)OCc1ccccc1
The “NORMALIZED SGLT1 ACTIVITY (%)” value of the first is lower: 95% for the first, 115% for the second.

Compared with COc1c(Cl)c(C)c2c(c1Cl)OC(=O)c1c(C)c(Cl)c(OC)c(Cl)c1O2, COc1ccc(-c2cc(=O)c3c(O)cc(O[C@H]4O[C@H](CO[C@@H]5O[C@@H](C)[C@H](O)[C@@H](O)[C@H]5O)[C@@H](O)[C@H](O)[C@H]4O)cc3o2)cc1 is higher in “NORMALIZED SGLT1 ACTIVITY (%)” value: 113% for the first, 121% for the second.

Compared with Cc1ccc2c(c1)CC[C@H]1CC(=O)CC[C@]21C, CCC1(c2ccccc2)C(=O)NCNC1=O is higher in “NORMALIZED SGLT1 ACTIVITY (%)” value: 113% for the first, 116% for the second.

Compared with CCCCCCCCCCC[C@@H](C[C@@H]1OC(=O)[C@H]1CCCCCC)OC(=O)[C@H](CC(C)C)NC=O, CC(=O)O[C@@H]1CC2C(C)(C)C(=O)C=C[C@]2(C)C2CC[C@@]3(C)[C@H](c4ccoc4)OC(=O)[C@H]4O[C@]43[C@@]21C (stereo partly shown) is higher in “NORMALIZED SGLT1 ACTIVITY (%)” value: 96% for the first, 116% for the second.

First: O=[N+]([O-])c1cccc2cn[nH]c12
Second: Cn1cnc([N+](=O)[O-])c1Sc1[nH]cnc2ncnc1-2
The “NORMALIZED SGLT1 ACTIVITY (%)” value of the first is higher: 154% for the first, 96% for the second.

Compared with CC[C@H]1OC(=O)[C@H](C)[C@@H](O[C@H]2C[C@@](C)(OC)[C@@H](O)[C@H](C)O2)[C@H](C)[C@@H](O[C@@H]2O[C@H](C)C[C@H](N(C)C)[C@H]2O)[C@](C)(O)C[C@@H](C)[C@@H]2N[C@@H](COCCOC)O[C@H]([C@H]2C)[C@]1(C)O, CO[C@H]1C[C@H](O[C@H]2[C@H](C)[C@@H](O[C@@H]3O[C@H](C)C[C@H](N(C)C)[C@H]3OC(C)=O)[C@@H](C)C[C@@]3(CO3)C(=O)[C@H](C)[C@@H](OC(C)=O)[C@@H](C)[C@@H](C)OC(=O)[C@@H]2C)O[C@@H](C)[C@@H]1OC(C)=O is higher in “NORMALIZED SGLT1 ACTIVITY (%)” value: 115% for the first, 119% for the second.

Compared with O=C1O[C@H](CO)[C@@H](O)[C@H](O)[C@H]1O, CC(C)(S)[C@@H](N)C(=O)O is higher in “NORMALIZED SGLT1 ACTIVITY (%)” value: 128% for the first, 144% for the second.
